{
  "source": "PubChem BioAssay AID588855",
  "about": "(National Center for Advancing Translational Sciences (NCATS), 2011)",
  "note": "In all, about 410,000 compounds went through this assay and about 5,000 (1.2%) were called active. Inconclusive results, whose numbers are uncertain, are shown with a selection of clear calls. Calls follow the shape of the dose curve; as a rule, active = well fitted inhibition curve with a large enough effect; inconclusive = small, poorly fitted or top-dose-only effect; inactive = no such curve, though single readings can be large or run the other way. Potencies of inconclusive entries are doubtful fits and often do not repeat. % is scaled to controls: 0 for no effect and ±100 for the full control effect; potency is read from the fitted curve at half-maximal effect; tags tell the direction and shape of the fitted curve.",
  "data": [
    {"experiment": "qHTS for Inhibitors of TGF-b; also: nearly all actives have a fitted effect of over 65% in size", "details": "HepG2 CAGA-GFP TGF-b/SMAD3 reporter, GFP fluorescence, 18 h, TGF-beta stimulated, 500 pg/mL final; series mostly up to 46.1 µM; activity, negative = inhibition: at the top concentration", "procedure,_shortened": "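Per well, imaged GFP fluorescence of HEPG2 CAGA-GFP cells gives the signal; cells get compound, then TGF-beta (500 pg/mL final), 18 h at 37 degrees C; %Activity versus -TGF-beta and +DMSO controls.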", "values": [
      {"compound": "COc1cccc(NC(=O)CN2C(=O)c3cccc4cccc2c34)c1", "activity, negative = inhibition": "inactive: -1.22%"},
      {"compound": "Cc1ccccc1CN1CCN(Cc2ccccc2C(F)(F)F)CC1", "Potency": "inconclusive: 0.891 µM [inhibitor, full curve]"},
      {"compound": "COc1cccc(C2=CC(c3cc(OC)ccc3OC)n3nnnc3N2)c1", "note": "(stereo not drawn)", "Potency": "inconclusive: 14.1 µM [inhibitor, single point]"},
      {"compound": "COCCn1c(C)cc(C(=O)COC(=O)c2ccccc2Br)c1C", "activity, negative = inhibition": "inactive: 11.6%"},
      {"compound": "Fc1ccc2nc3c(nc2c1)CCCC3", "activity, negative = inhibition": "inactive: -7.17%"},
      {"compound": "COc1ccccc1CC(=O)NN1C(=O)c2ccccc2C1=O", "Potency": "inconclusive: 35.5 µM [inhibitor, single point]"},
      {"compound": "COC(=O)c1c(NC(=O)COC(=O)[C@@H](NS(=O)(=O)c2cccc(Cl)c2)C(C)C)sc2c1CCC2", "Potency": "inconclusive: 35.5 µM [inhibitor, single point]"},
      {"compound": "CCCCCOc1ccc(/C=C/C(=O)Nc2sc(C)c(C)c2C(=O)OCC)cc1OC", "Potency": "inconclusive: 6.31 µM [inhibitor, single point]"},
      {"compound": "CC(C)(C)OC(=O)N1CCN(/[N+]([O-])=N/Oc2ccc([N+](=O)[O-])cc2[N+](=O)[O-])CC1", "Potency": "inconclusive: 25.1 µM [inhibitor, single point]"},
      {"compound": "O=C1c2ccccc2C(=O)N1CC(O)Cn1nnc2ccccc21", "note": "(stereo not drawn)", "activity, negative = inhibition": "inactive: -1.16%"},
      {"compound": "Cc1cccc(-n2nnc3cnn(C)c3c2=O)c1", "Potency": "inconclusive: 3.55 µM [inhibitor, partial curve, poor fit]"},
      {"compound": "Cc1ccc(O)c(-c2cc(-c3ccccc3F)[nH]n2)c1", "Potency": "inconclusive: 11.2 µM [inhibitor, partial curve, poor fit]"},
      {"compound": "Cc1nn(-c2ccccc2)c2c1C(c1ccc(O)c(O)c1)N1C(=N2)C(Nc2ccccc2)=Nc2ccccc21", "note": "(stereo not drawn)", "Potency": "inconclusive: 35.5 µM [inhibitor, single point]"},
      {"compound": "COc1ccccc1NC(=O)CN1CCN(CC(=O)Nc2ccc(Cl)c(C(F)(F)F)c2)CC1", "Potency": "inconclusive: 12.6 µM [inhibitor, single point]"},
      {"compound": "CCCCn1c(SCC(=O)N2CCCc3ccccc32)nc2c1c(=O)n(C)c(=O)n2C", "Potency": "inconclusive: 6.31 µM [inhibitor, single point]"},
      {"compound": "Nc1ncnc2c1ncn2[C@@H]1O[C@H](CNC(=O)[C@@H]2C[C@H](F)CN2)[C@@H](O)[C@H]1O", "activity, negative = inhibition": "inactive: -18.7%"},
      {"compound": "Cc1nn(Cc2cccc(F)c2)c(C)c1NC(=O)c1ccc(COc2ccccc2Cl)cc1", "Potency": "inconclusive: 10 µM [inhibitor, partial curve]"},
      {"compound": "Cc1nc([N+](=O)[O-])c(NCCO)n1Cc1ccccc1", "activity, negative = inhibition": "inactive: 0.51%"},
      {"compound": "CCN1C(=O)C2(C(C#N)=C(N)Oc3n[nH]c(-c4ccc(Cl)cc4)c32)c2ccccc21", "note": "(stereo not drawn)", "Potency": "inconclusive: 35.5 µM [inhibitor, single point]"},
      {"compound": "COc1ccc(-n2c(=O)c3ccccc3n(CC(=O)c3ccccc3)c2=O)cc1OC", "Potency": "inconclusive: 2.82 µM [inhibitor, single point]"},
      {"compound": "CC(C)n1c(=O)c2c(O)cc(=O)oc2c2ccccc21", "Potency": "inconclusive: 35.5 µM [inhibitor, single point]"},
      {"compound": "CCN(C(=O)CSc1nnc(COc2ccccc2F)n1N)c1c(N)n(Cc2ccccc2)c(=O)[nH]c1=O", "activity, negative = inhibition": "inactive: 9.44%"},
      {"compound": "CC(C)c1ccc(/C=C2\\C=Cc3ccccc32)cc1", "Potency": "inconclusive: 35.5 µM [inhibitor, single point]"},
      {"compound": "Clc1ccc2nc(C3CCCCC3)c(Cc3ccsc3)n2c1", "Potency": "inconclusive: 12.6 µM [inhibitor, single point]"},
      {"compound": "CC(=O)Nc1ccc(CNc2nc3cc(-c4ccsc4)sc3c(=O)n2C)cc1", "Potency": "inconclusive: 8.91 µM [inhibitor, partial curve, poor fit]"},
      {"compound": "Cc1cccc(N(C)c2nc3ccc(C(=O)c4ccccc4)cc3n3c(C)nnc23)c1", "activity, negative = inhibition": "inactive: -19.6%"},
      {"compound": "COc1cc(Br)cc(/C=N/c2ncn[nH]2)c1O", "Potency": "inconclusive: 35.5 µM [inhibitor, single point]"},
      {"compound": "O=C(CCC(=O)N1CCN(C2CCCCC2)CC1)Nc1nnc(C(F)(F)F)s1", "Potency": "inconclusive: 0.891 µM [inhibitor, full curve, poor fit]"},
      {"compound": "COc1ccc(C2(OC)Oc3cc(OC)ccc3C(=O)C2(O)OC)cc1", "note": "(stereo not drawn)", "Potency": "inconclusive: 0.1 µM [inhibitor, full curve, poor fit]"},
      {"compound": "COC(=O)[C@H](CCSC)NC(=O)NCCc1ccccc1F", "Potency": "inconclusive: 12.6 µM [inhibitor, single point]"},
      {"compound": "O=S1(=O)Cc2cc3ccccc3cc2C1", "Potency": "inconclusive: 35.5 µM [inhibitor, single point]"},
      {"compound": "O=C1Oc2ccccc2C(=O)/C1=C\\N1CCN(c2ccccc2)CC1", "Potency": "inconclusive: 2.82 µM [inhibitor, single point]"},
      {"compound": "CN(Cc1ccccc1)CC(O)COc1ccc(CNCc2cccnc2)cc1", "note": "(stereo not drawn)", "activity, negative = inhibition": "inactive: 2.79%"},
      {"compound": "CCc1ccc(C(=O)COC(=O)CNC(=O)C2CCCCC2)cc1", "Potency": "inactive"},
      {"compound": "CCc1cccc(NC(=O)c2cc3c(=O)n(Cc4ccccc4)ccc3nc2C)c1", "Potency": "inconclusive: 20 µM [inhibitor, single point]"},
      {"compound": "Cc1ccc(CN2CCCn3nc(C(=O)NCCc4ccccc4C)cc3C2=O)cc1", "activity, negative = inhibition": "inactive: -8.54%"},
      {"compound": "COc1cc(C(=O)Nc2ccccc2-c2nc(-c3ccccc3)no2)cc(OC)c1OC", "activity, negative = inhibition": "inactive: 1.49%"},
      {"compound": "CC(C)c1ccc(NC(=O)C2CCN(C(=O)c3ccc(F)cc3)CC2)cc1", "Potency": "inconclusive: 35.5 µM [inhibitor, single point]"},
      {"compound": "O=C(O)c1cc(/C=C/c2ccc(N3CCOCC3)c([N+](=O)[O-])c2)nc2ccccc12", "activity, negative = inhibition": "inactive: -4.76%"},
      {"compound": "CC1CCN(c2nn3c(=O)c(C(=O)NCCCOC(C)C)cnc3s2)CC1", "Potency": "inconclusive: 10 µM [inhibitor, partial curve, poor fit]"},
      {"compound": "CSc1ccc(OC2CCCCC2NS(=O)(=O)c2ccc(Cl)cc2)cc1", "note": "(stereo not drawn)", "Potency": "inconclusive: 35.5 µM [inhibitor, single point]"},
      {"compound": "O=S(=O)(NCC(c1ccc2c(c1)OCO2)N1CCOCC1)c1ccc(Br)cc1", "note": "(stereo not drawn)", "activity, negative = inhibition": "inactive: 3.49%"},
      {"compound": "CCCCC(CCC(=O)Nc1ccccc1C(=O)OCC)C(=O)O", "note": "(stereo not drawn)", "Potency": "inconclusive: 0.0891 µM [inhibitor, full curve, poor fit]"}
    ]}
  ]
}
